According to PubChem BioAssay AID686979 (National Center for Advancing Translational Sciences (NCATS), 2013):
In all, about 420,000 compounds went through this assay and about 50,000 (12%) were called active. This list was built around the results that the source calls inconclusive (neither active nor inactive); the mix of calls is not that of the screen. Calls come from the whole dose curve; as a rule, active = well fitted inhibition curve with a large enough effect; inconclusive = small, poorly fitted or top-dose-only effect; inactive = flat fitted curve, though single readings scatter. No potency is given beside an inconclusive call; the fits are too rough.
% is set by controls: 0 for no effect and ±100 for the full control effect; potency is the fitted concentration of half-maximal effect; tags give direction and shape of the fitted curve.

Assay: qHTS for Inhibitors of human tyrosyl-DNA phosphodiesterase 1 (TDP1): qHTS in cells in presence of CPT; note: nearly all actives have a fitted effect of over 55% in size
Conditions: chicken DT40 Tdp1-/-;hTDP1 cells + 20 nM CPT, ATP luminescence, 48 h; activity change, negative = growth inhibition: at 46.2 µM (top of the series) unless noted
Summary of the method: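 Cell growth measured by CellTiter-Glo luminescence after a minimum 48 h, 37 C compound exposure with 20 nM CPT in Tdp1-knockout DT40 cells stably expressing hTDP1, seeded 400/well; qHTS titration format.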
With `CCn1nnc2cc(C(=O)Nc3cccc(Cl)c3C)ccc21` the Potency was inconclusive [inhibitor, partial curve]. In the case of `COc1ccc(N2CCN(Cc3oc(CO)cc(=O)c3O)CC2)cc1`, the “activity change, negative = growth inhibition” value is reported as inactive: -4.37%. For `Cc1cc(C)c(C(CC(=O)c2cccs2)C(C#N)C#N)c(C)c1` (configuration not stated), the Potency was inconclusive [inhibitor, single point]. For `c1ccc(CCNc2ccc3ncc(-c4cccc5ccccc45)n3n2)nc1`, the Potency was inconclusive [inhibitor, single point]. For `Nc1cc(S(=O)(=O)N2CCOCC2)ccc1Oc1cccc(Br)c1`, the Potency was inconclusive [inhibitor, single point]. For `O=C(Nc1cnn(Cc2c(Cl)cccc2Cl)c1)c1ccc([N+](=O)[O-])cc1`, the Potency was inconclusive [inhibitor, single point]. In the case of `Cc1c(NC(=O)c2ccc(Br)s2)c(=O)n(-c2ccccc2)n1C`, the Potency is reported as inconclusive [inhibitor, single point]. In the case of `COc1cccc(C(=O)Nc2cccc(C(=O)N3CCOCC3)c2)c1`, the “activity change, negative = growth inhibition” value is reported as inactive: -0.692%. For `COc1ccccc1-n1c(=O)c2c3c(sc2n(C)c1=O)CN(C(C)=O)CC3`, the “activity change, negative = growth inhibition” value was inactive: 13%. For `CCOC(=O)Cc1ccc(NC(=O)Nc2ccccc2OCc2cc(=O)n3ccccc3n2)cc1`, the “activity change, negative = growth inhibition” value was inactive: -3.82%. With `O=C(NCc1ccc2c(c1)CCN2C(=O)c1ccccc1)Nc1cc(F)ccc1F` the Potency was active: 16.4 µM. In the case of `CCCCCC(O)CCc1n[nH]c(=S)n1-c1ccccc1` (configuration not stated), the “activity change, negative = growth inhibition” value is reported as inactive: 10.7%. For `CC1=C(C)C(=O)C(N2CCOCC2)=CC1=O`, the Potency was active: 16.4 µM. With `COc1ccc(-c2noc(-c3ccc(N4CCCC4)c([N+](=O)[O-])c3)n2)cc1` the “activity change, negative = growth inhibition” value was inactive: -20.8%. In the case of `CCOC(=O)C1C(c2ccc(OC)cc2)N(C)OC1(O)C(F)(F)F` (configuration not stated), the “activity change, negative = growth inhibition” value is reported as inactive: -0.0301%. In the case of `Cc1ccc(-c2csc3ncnc(NCCN4CCOCC4)c23)cc1`, the Potency is reported as inconclusive [inhibitor, single point]. In the case of `Cc1ccc(-n2nnnc2Sc2nc([N+](=O)[O-])nn2C)cc1`, the Potency is reported as inconclusive [inhibitor, single point]. In the case of `COc1ccc(C)cc1S(=O)(=O)NCC(c1cccs1)S(=O)(=O)c1ccc(C)cc1` (configuration not stated), the Potency is reported as active: 23.1 µM. For `Cc1ccc(-n2cc(-c3ccccc3)c3c(NN4CCOCC4)ncnc32)cc1`, the Potency was active: 20.6 µM. With `COc1cc(/C=N/n2c(C)n[nH]c2=S)ccc1OCc1ccccc1` the “activity change, negative = growth inhibition” value was inactive: -11.3%. For `CC(Oc1ccc(F)cc1)C(=O)Nc1nc(-c2ccc(F)cc2)ns1` (configuration not stated), the Potency was inconclusive [inhibitor, single point]. In the case of `COc1ccc(-c2csc(NC(=O)CSc3ccc(Br)cc3)n2)c(OC)c1`, the Potency is reported as active: 18.4 µM. For `CC(C)c1cccc(-c2ccc3c(c2)S(=O)(=O)c2cccc(C(=O)NCc4ccccc4Cl)c2C3=O)c1`, the Potency was active: 2.59 µM. In the case of `COc1cccc(CCC(=O)N2CCC(n3nccc3NC(=O)C3CCOC3)CC2)c1` (configuration not stated), the “activity change, negative = growth inhibition” value is reported as inactive: 0.962%. With `COc1cc(O)c(C(CCN2CCCC2)c2ccc3c(c2)OCO3)c(OC)c1` (configuration not stated) the Potency was active: 23.1 µM. In the case of `COc1ccc(-c2nc3scc(CCNS(=O)(=O)c4ccccc4F)n3n2)cc1`, the Potency is reported as inconclusive [inhibitor, single point]. With `Cc1cccc(C)c1NC(=S)NC(=O)c1ccccc1F` the Potency was inconclusive [inhibitor, single point]. In the case of `CC1(C(=O)NCCCN2CCCC2=O)CCN1CCc1ccccc1` (configuration not stated), the “activity change, negative = growth inhibition” value is reported as inactive: -22%. In the case of `Cc1ccc(C2=NN(CC(=O)NCCCN(CC(C)C)CC(C)C)C(=O)CC2)cc1`, the Potency is reported as inconclusive [inhibitor, partial curve, poor fit]. For `Cc1ccc(S(=O)(=O)N2[C@@H](c3ccc(Cl)cc3)C(C(=O)O)=CC[C@H]2c2ccc(C(C)C)cc2)cc1`, the Potency was inconclusive [inhibitor, single point]. With `NC(=O)CC(NC(=O)c1cccc(Br)c1)c1ccc(N2CCN(c3ccccn3)CC2)c([N+](=O)[O-])c1` (configuration not stated) the Potency was active: 14.6 µM. In the case of `Cc1ccccc1S(=O)(=O)N(CC(O)CN1C(=O)NC(C)(C)C1=O)c1ccccc1` (configuration not stated), the “activity change, negative = growth inhibition” value is reported as inactive: -6.14%. For `CC(=O)c1c(C)[nH]c(C(=O)COC(=O)COc2ccccc2F)c1C`, the “activity change, negative = growth inhibition” value was inactive: -0.194%. In the case of `CN1/C(=C\C(=O)c2cccc(S(=O)(=O)N3CCCCC3)c2)C(C)(C)c2ccccc21`, the Potency is reported as inconclusive [inhibitor, single point]. In the case of `Cc1cccn2c(=O)c3cc(S(=O)(=O)c4ccc(Br)cc4)c(=N)n(C4CCCCC4)c3nc12`, the Potency is reported as inconclusive [inhibitor, partial curve]. For `CC(C)(C)S(=O)(=O)/C(C#N)=C/c1cccn1S(=O)(=O)c1ccccc1`, the “activity change, negative = growth inhibition” value was inactive: -8.83%. In the case of `N=c1oc2cc(O)ccc2cc1C(=O)Nc1ccc(Cl)cc1`, the Potency is reported as inconclusive [inhibitor, single point]. In the case of `O=C(NC1CCCCCC1)C1CCN(C(=O)N2CCOc3ccc(Cl)cc32)CC1`, the Potency is reported as active: 25.9 µM. With `O=C(O)C(Cc1ccccc1-c1ccccc1)C(=O)O` the “activity change, negative = growth inhibition” value was inactive: 11.6%. With `Cc1ccc(CCNC(=O)C2CCC(CNc3c(N4CCCC4)c(=O)c3=O)CC2)cc1` (configuration not stated) the “activity change, negative = growth inhibition” value was inactive: 0.102%. In the case of `C#CCNC(=O)C[C@@H]1C[C@@]2(C(=O)OCC)CCC=C2N(Cc2ccco2)C1=O`, the “activity change, negative = growth inhibition” value is reported as inactive: 1.23%. With `Cc1ccccc1C(=O)Nc1ccnn1C1CCN(C(=O)C2CCOC2)CC1` (configuration not stated) the “activity change, negative = growth inhibition” value was inactive: 5.46%. With `Cc1ccc(S(=O)(=O)NCc2c(-c3ccccc3)c3cc(Cl)ccc3[nH]c2=O)cc1` the Potency was inconclusive [inhibitor, single point]. In the case of `Cc1ccc(C2=NS(=O)(=O)N(C)C(C(=O)NC3CCCC3)=C2)cc1`, the Potency is reported as inconclusive [inhibitor, partial curve]. For `Cc1cc(=O)oc2cc(OCC(=O)NCCc3c[nH]c4ccc(F)cc34)ccc12`, the “activity change, negative = growth inhibition” value was inactive: -17.7%. With `Cc1cc(Oc2ccc(=O)[nH]n2)nc(Cl)n1` the “activity change, negative = growth inhibition” value was inactive: -14.6%. With `COCOc1ccc(-c2ncc(OCCN3CCCC3=O)nc2NC(=O)c2cc3ccccc3s2)cc1` the Potency was inconclusive [inhibitor, single point]. In the case of `CCCN1/C(=C2/SC(=S)N(CC)C2=O)C=Cc2ccccc21`, the Potency is reported as inconclusive [inhibitor, single point]. In the case of `CC1=C(C(=O)OCc2ccc3c(c2)OCO3)C(c2ccc(Cl)cc2)NC(=O)N1` (configuration not stated), the Potency is reported as active: 2.31 µM. For `Cc1ccc(C)c(NC(=O)CSc2nnc(-c3n[nH]c4ccccc34)o2)c1`, the Potency was inconclusive [inhibitor, single point]. With `CCN(CC)CCN(CC)c1ccc(/C=C/c2ccnc3ccccc23)cc1` the “activity change, negative = growth inhibition” value was inactive: -90.9%. With `Cc1cc(C)nc(/N=C(\N)Nc2ccc(F)c([N+](=O)[O-])c2)n1` the Potency was inconclusive [inhibitor, partial curve]. In the case of `COc1ccc(-n2nc3c(N4CCC(C(=O)NCc5ccco5)CC4)nnc(C)c3c2C)cc1`, the Potency is reported as inconclusive [inhibitor, single point]. With `CCOc1ccccc1CN1[C@@H](c2ccc(OC)cc2)CC(C(=O)OC)(C(=O)OC)[C@H]1c1ccccc1` the Potency was inconclusive [inhibitor, single point]. For `CCOC(=O)Cn1c(C(=O)OCC)cc2sccc21`, the “activity change, negative = growth inhibition” value was inactive: -8.59%. For `Cc1cc(C)c(NC(=O)C(C)n2c(=O)cc(C)c3c(C)nn(-c4ccccc4)c32)c(C)c1` (configuration not stated), the Potency was inconclusive [inhibitor, single point]. For `CCN(CC)S(=O)(=O)c1cc(-c2nn(C)c(=O)c3ccccc23)ccc1C`, the Potency was active: 23.1 µM. In the case of `CNc1ccc(-c2cccc(CO)c2)cn1`, the activity change, negative = growth inhibition is reported as inconclusive: -30.6% [inhibitor]. With `C=CCOc1cccc(/C=C/c2nc3ccccc3c(=O)[nH]2)c1` the Potency was inconclusive [inhibitor, single point]. For `O=C(/C=C/c1ccc([N+](=O)[O-])cc1)NCCSCc1ccco1`, the Potency was inconclusive [inhibitor, single point]. For `COc1cccc(-c2nc(NCCc3c[nH]c4ccc(OC)cc34)c3ccccc3n2)c1`, the Potency was inconclusive [inhibitor, single point]. With `COc1ccc(C)cc1Nc1n[n+](-c2ccccc2)c(-c2c(OC)ccc3ccccc23)s1` the Potency was active: 5.8 µM. For `CCOc1cccc(NC(=O)C2CC(=O)N(C)C(=Nc3cccc(OC)c3)S2)c1` (configuration not stated), the Potency was inconclusive [inhibitor, single point]. In the case of `CCN(CCCNC(=O)CSc1cc(=O)n(C)c2ccccc12)c1ccccc1`, the Potency is reported as inconclusive [inhibitor, single point]. With `CCN(CC)c1nc2cc(C)ccc2cc1/C=C(\C#N)C(N)=O` the Potency was inconclusive [inhibitor, single point]. With `O=C(Nc1ccc(Cl)cc1Cl)c1cc(S(=O)(=O)N2CCC3(CC2)OCCO3)ccc1F` the Potency was active: 16.4 µM. In the case of `O=[N+]([O-])c1cccc2nc3ccccc3c(NCCCn3ccnc3[N+](=O)[O-])c12`, the Potency is reported as active: 0.146 µM. In the case of `CCSc1nc2ccccc2n1C(=O)c1ccc(S(=O)(=O)N2CCCCC2)cc1`, the Potency is reported as inconclusive [inhibitor, full curve, poor fit]. For `Cc1ccc2cc(CN(CC3CCCO3)S(=O)(=O)c3ccc4c(c3)OCCO4)c(=O)[nH]c2c1C` (configuration not stated), the Potency was active: 18.4 µM. With `Cc1cccc(C2CC3(CC(C)(C)NC(=S)N3)Oc3cc(O)ccc32)c1` (configuration not stated) the Potency was active: 20.6 µM. For `COc1ccc2c(c1)c(C(C)=O)c(C)n2CCc1ccccc1`, the Potency was inconclusive [inhibitor, single point]. In the case of `Cc1ccc2c(c1)c1c3n2CCN(CC(N)=O)C3CCC1` (configuration not stated), the Potency is reported as inconclusive [inhibitor, single point].
